# ChEMBL document CHEMBL4888484, “Replenishing the malaria drug discovery pipeline: Screening and hit evaluation of the MMV Hit Generation Library 1 (HGL1) against asexual blood stage Plasmodium falciparum ,using a nano luciferase reporter read-out” (2022)
# The campaign covered roughly 150,000 compounds. About 540 (0.36%) showed an effect of 50% or more. Some of the results follow.
# System: Plasmodium falciparum
# Test: Primary screen in NF54 nanoGlo assay, in single point, at 2uM, 72h; a lower Z score goes with more inhibition
# Format: functional, Erythrocyte
# Details: timepoint 72 hour
SMILES,% Inhibition,Z score
CCn1cc(S(=O)(=O)N2CC[C@@]3(CCCN(CC4CC4)C3=O)C2)cn1,-6%,0.86
COCCN1CC(=O)N[C@H]2CN(C(=O)C3CCCC3)C[C@@H]2OCc2cccc(c2)Oc2cncc(c2)C1=O,-5%,0.74
CN(C)C(=O)c1ccc(Br)cc1NC(=O)OC(C)(C)C,-18%,3.47
CCNc1n[nH]c(N)c1-c1nc(-c2ccc(OC)cc2)no1,-10%,1.28
O=C(Nc1ccc(N2CCOCC2)cc1)[C@@H](c1cccc(F)c1)N(Cc1ccc(Cl)cc1)C(=O)Cn1nnc2ccccc21,5%,-0.58
COc1ccc(OC)c(CN2CCc3nc(N4CCOCC4)ncc3C2)c1,1%,-0.14
CCCN1C(=O)COc2ccc(-c3noc(Cc4ccc(NC(C)=O)cc4)n3)cc21,4%,-0.44
CC1CCN(S(=O)(=O)c2ccc3c(c2)-c2oncc2CO3)CC1,-22%,2.17
Cc1cc2n(n1)CCN(C(=O)c1cncc(F)c1)C2,-7%,1.27
CCc1nc(C)nc(N2CCN(C(=O)c3ccccc3Cl)CC2)c1Cc1ccc(Cl)cc1,-13%,1.96
Cc1nc(C2=C(O)CN(c3ccc(Oc4ccccc4)cc3)C2=N)sc1C,-11%,1.15
COCc1nc(C)cc(N2CC[C@H](c3ccncc3)C2)n1,-43%,5.08
Cc1nc2n(n1)C[C@@H](C(=O)N(C)c1ncccc1F)CC2,-8%,1.06
CC(C)(C)c1ccc2c(c1)N(S(=O)(=O)c1ccccc1)C[C@@H](C(=O)Nc1ccc3c(c1)OCO3)O2,-14%,2.63
CC(=O)c1c(C)[nH]c(C(=O)N2CC(=O)Nc3ccccc32)c1C,5%,-0.59
C[C@H](Oc1ccccc1)C(=O)Nc1cnoc1,-11%,1.76
Cc1ccc(OCC(=O)NCc2ccc3c(c2)OCO3)cn1,-2%,0.14
COCC(=O)N1CCC(CCOCc2ccccc2F)CC1,-5%,0.97
Cn1ncn(CC(=O)Nc2cccc(Cl)c2)c1=O,-4%,0.66
CC(C)(C)c1noc(-c2cccc(=O)n2CC(=O)Nc2ccc(F)cc2)n1,-12%,1.16
CCN1CCN(c2nc3c(s2)CN(C(=O)COC)CC3)CC1,-9%,1.2
N#CCCN(CC1CC1)C(=O)[C@H](O)c1ccc(Br)cc1,1%,-0.24
COc1ccc(OC)c2c(/C=C/c3c[nH]c4ccccc34)ccnc12,-8%,0.9
